Measured values as given in PubChem BioAssay (Tox21).
“And” between values parts separate entries of the source, which are not always exact repeats. Equal entries are not always repeated. Inconclusive results, whose numbers are uncertain, are shown with a selection of clear calls. For part of these data: Potencies beside an inconclusive call are fits to weak or partial responses and may not hold up. The source made the active and inactive calls. Calls come from the whole dose curve; as a rule, active = well fitted curve in the direction sought with a large enough effect in the repeat runs; inconclusive = weak or mixed curves; inactive = no such curve, though single readings can be large; an effect the other way counts as inactive or inconclusive.

Tests used:
[1] = Human pregnane X receptor (PXR) small molecule agonists, qHTS cell viability counter screen (AID 1346977); note: nearly all actives have a fitted effect of over 50% in size; note: potency is the fitted concentration of half-maximal effect
Method in brief: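 Cytotoxicity counter screen run in the same wells as the PXR luciferase assay, using PXR-Luc HepG2 cells in charcoal-stripped serum medium. Viability: CellTiter-Fluor fluorescence after 24hr compound treatment.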

[2] = Caspase-3/7 induction in CHO-K1 cells by small molecules, qHTS assay (AID 1346980); note: % is set by controls: 0 for no effect and ±100 for the full control effect; nearly all actives have a fitted effect of over 15% in size
Method in brief: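 Wild-type cells were seeded at 1,500 per well and settled 5 hr at 37 C, 5% CO2, then exposed to DMSO-dissolved compounds for 17 hr. Caspase-Glo 3/7 reagent was added, and luminescence was read after 30min at room temperature.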

[3] = target: Nuclear receptor subfamily 1 group I member 2 (Rattus norvegicus) (UniProt Q9R1A7); assay: Rat pregnane X receptor (rPXR) activation by small molecules, qHTS assay (AID 1346983); details: rPXR luciferase reporter cells, One-Glo luminescence, 24 h; max activation: stronger effect = higher value; note: % is set by controls: 0 for no effect and ±100 for the full control effect; nearly all actives have a fitted effect of over 20% in size
Method in brief: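 Cell-based rPXR luciferase reporter assay, 2,000 cells per well, rested 5hr at 37 C before compound addition in DMSO, then 24 hr at 37 C. One-Glo reagent was added and luminescence read after 30 min at room temperature.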

[4] = target: Nuclear receptor subfamily 1 group I member 2 (Homo sapiens) (UniProt O75469); assay: Human pregnane X receptor (PXR) activation by small molecules, qHTS assay (AID 1346985); note: potency is the fitted concentration of half-maximal effect; nearly all actives have a fitted effect of over 40% in size
Method in brief: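 DPX-2 cells (HepG2 co-transfected with a PXR response element and a CYP3A4-promoter luciferase construct) were seeded at 2,000 per well, rested 5 hr at 37C, then exposed to DMSO-dissolved compounds for 24 hr. Activation was read as luciferase luminescence.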

[5] = target: Cytochrome P450 2C9 (Homo sapiens) (UniProt P11712); assay: Cytochrome P450 Family 2 Subfamily C Member 9 (CYP2C9) small molecule antagonists: luciferase reporter qHTS assay (AID 1671198); note: nearly all actives have a fitted effect of over 50% in size; note: potency is the fitted concentration of half-maximal effect
Method in brief: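 CYP2C9 activity was measured with a P450-Glo proluciferin substrate. Enzyme–substrate mix was held with compound for 10 min at room temperature, then NADPH regeneration solution was added for 1 h at 37C. Luciferin product was read as luminescence.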

[6] = Caspase-3/7 induction in CHO-K1 cells by small molecules, qHTS cell viability counter screen (AID 1346979); note: nearly all actives have a fitted effect of over 35% in size; note: potency is the fitted concentration of half-maximal effect
Method in brief: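 Cytotoxicity counter screen run in parallel with the caspase-3/7 assay: CHO-K1 cells, 16hr compound treatment at 37C, then CellTiter-Fluor for 1hr before fluorescence reading.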

[7] = target: Cytochrome P450 2C19 (Homo sapiens) (UniProt P33261); assay: Cytochrome P450 Family 2 Subfamily C Member 19 (CYP2C19) small molecule antagonists: luciferase reporter qHTS assay (AID 1671197); note: nearly all actives have a fitted effect of over 65% in size; note: potency is the fitted concentration of half-maximal effect
Method in brief: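 P450-Glo CYP2C19 screening system; proluciferin substrate; DMSO compound stocks; 10 min RT preincubation; NADPH regeneration, 1 h at 37C; luciferin detection reagent, 20 min RT; luminescence as RLU.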

[8] = target: Cytochrome P450 2D6 (Homo sapiens) (UniProt P10635); assay: Cytochrome P450 Family 2 Subfamily D Member 6 (CYP2D6) small molecule antagonists: luciferase reporter qHTS assay (AID 1671196); note: nearly all actives have a fitted effect of over 50% in size; note: potency is the fitted concentration of half-maximal effect
Method in brief: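 Quantitative HTS of Tox21 chemicals against CYP2D6 using a luminescent proluciferin substrate. After NADPH addition, 1 h room-temperature reaction; luminescence recorded 20 min post detection reagent.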

[9] = target: Voltage-gated inwardly rectifying potassium channel KCNH2 (Homo sapiens) (UniProt Q12809); assay: Human Ether-a-go-go-Related Gene (hERG) channel small molecule antagonists: fluorescence cell-based qHTS assay (AID 1671200); note: potency is the fitted concentration of half-maximal effect; nearly all actives have a fitted effect of over 50% in size
Method in brief: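 Fluorescence at 540 nm emission (480 nm excitation) was recorded kinetically for 2 min at 1-second intervals once the thallium-containing stimulus reached cells previously loaded with FluxOR II dye.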

[10] = Caspase-3/7 induction in HepG2 cells by small molecules, qHTS cell viability counter screen (AID 1346981); note: nearly all actives have a fitted effect of over 30% in size; note: potency is the fitted concentration of half-maximal effect
Method in brief: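 The parent HepG2 line is plated at 2,000 cells per well and rested 5 hr before compound pinning from DMSO stocks. Following a 16-hr treatment at 37 C, a fluorogenic live-cell substrate (CellTiter-Fluor) reports viability after 1 hr.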

[11] = target: Cytochrome P450 3A4 (Homo sapiens) (UniProt P08684); assay: Cytochrome P450 Family 3 Subfamily A Member 4 (CYP3A4) small molecule antagonists: luciferase reporter qHTS assay (AID 1671201)
Method in brief: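 qHTS, 1536-well. CYP3A4 + proluciferin substrate, cpd 10 min RT → NADPH regen 1 h RT → detection reagent 20 min → luminescence (RLU). Ketoconazole positive control.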

[12] = target: Nuclear receptor subfamily 1 group I member 2 (Homo sapiens) (UniProt O75469); assay: Human pregnane X receptor (PXR) small molecule agonists, qHTS assay (AID 1346982); note: nearly all actives have a fitted effect of over 35% in size; note: potency is the fitted concentration of half-maximal effect; for activation: % is set by controls: 0 for no effect and ±100 for the full control effect
Method in brief: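 After plating in 5% charcoal-stripped FBS and a 5 hr rest, PXR-Luc HepG2 cells received compounds in DMSO. Following 24 hr at 37 C, ONE-Glo was added and light output read.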

[13] = target: Cytochrome P450 1A2 (Homo sapiens) (UniProt P05177); assay: Cytochrome P450 Family 1 Subfamily A Member 2 (CYP1A2) small molecule antagonists: luciferase reporter qHTS assay (AID 1671199); note: nearly all actives have a fitted effect of over 50% in size; note: potency is the fitted concentration of half-maximal effect
Method in brief: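 Quantitative high-throughput format using the P450-Glo CYP1A2 system. Reaction initiated by NADPH regeneration solution, 1 h at room temperature, then stopped with detection reagent; luminescence measured 20 min later.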
Tags give direction and shape of the fitted curve.

Chain of UniProt P10635 (P10635 whole entry, looked up): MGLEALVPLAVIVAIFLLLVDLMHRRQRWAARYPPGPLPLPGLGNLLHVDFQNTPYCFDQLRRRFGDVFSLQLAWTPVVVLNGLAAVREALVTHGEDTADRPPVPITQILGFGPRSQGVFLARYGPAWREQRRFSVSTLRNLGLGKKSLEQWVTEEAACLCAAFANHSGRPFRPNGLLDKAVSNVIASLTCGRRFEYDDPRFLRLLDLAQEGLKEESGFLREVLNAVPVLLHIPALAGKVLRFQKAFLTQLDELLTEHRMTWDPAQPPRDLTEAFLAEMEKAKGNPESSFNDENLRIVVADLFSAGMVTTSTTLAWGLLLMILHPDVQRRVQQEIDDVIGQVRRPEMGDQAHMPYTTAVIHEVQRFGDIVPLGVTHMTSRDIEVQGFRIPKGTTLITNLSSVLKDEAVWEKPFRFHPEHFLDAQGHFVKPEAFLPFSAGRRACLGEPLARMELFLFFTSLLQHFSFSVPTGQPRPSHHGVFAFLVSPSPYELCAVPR
Chain of UniProt P33261 (P33261 whole entry, looked up): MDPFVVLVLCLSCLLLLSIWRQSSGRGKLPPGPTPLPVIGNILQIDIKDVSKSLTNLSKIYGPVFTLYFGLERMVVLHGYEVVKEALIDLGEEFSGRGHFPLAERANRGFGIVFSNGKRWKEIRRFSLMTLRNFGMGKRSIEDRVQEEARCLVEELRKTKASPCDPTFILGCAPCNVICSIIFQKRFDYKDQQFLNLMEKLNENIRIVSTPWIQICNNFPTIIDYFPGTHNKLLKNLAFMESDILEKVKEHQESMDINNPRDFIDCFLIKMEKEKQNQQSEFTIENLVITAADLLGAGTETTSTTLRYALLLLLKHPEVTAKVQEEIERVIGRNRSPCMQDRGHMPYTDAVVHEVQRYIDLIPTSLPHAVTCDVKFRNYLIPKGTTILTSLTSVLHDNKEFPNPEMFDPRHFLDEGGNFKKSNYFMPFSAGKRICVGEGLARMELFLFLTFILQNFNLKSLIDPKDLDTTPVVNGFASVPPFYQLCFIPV
Chain of UniProt P05177 (P05177 whole entry, looked up): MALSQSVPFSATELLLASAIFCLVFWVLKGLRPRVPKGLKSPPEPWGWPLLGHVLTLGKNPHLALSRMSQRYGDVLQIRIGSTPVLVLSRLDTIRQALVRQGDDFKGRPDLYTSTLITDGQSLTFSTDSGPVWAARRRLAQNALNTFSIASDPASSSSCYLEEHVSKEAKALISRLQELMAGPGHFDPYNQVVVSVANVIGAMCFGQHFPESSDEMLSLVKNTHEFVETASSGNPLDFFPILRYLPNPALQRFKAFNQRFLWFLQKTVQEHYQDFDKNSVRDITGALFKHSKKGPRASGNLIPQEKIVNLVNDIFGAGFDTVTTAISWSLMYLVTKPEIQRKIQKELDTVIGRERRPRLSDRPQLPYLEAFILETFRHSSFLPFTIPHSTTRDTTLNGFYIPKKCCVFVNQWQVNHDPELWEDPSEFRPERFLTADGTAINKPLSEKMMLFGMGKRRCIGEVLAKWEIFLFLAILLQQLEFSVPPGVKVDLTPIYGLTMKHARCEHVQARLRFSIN
Chain of UniProt Q12809 (Q12809 whole entry, looked up): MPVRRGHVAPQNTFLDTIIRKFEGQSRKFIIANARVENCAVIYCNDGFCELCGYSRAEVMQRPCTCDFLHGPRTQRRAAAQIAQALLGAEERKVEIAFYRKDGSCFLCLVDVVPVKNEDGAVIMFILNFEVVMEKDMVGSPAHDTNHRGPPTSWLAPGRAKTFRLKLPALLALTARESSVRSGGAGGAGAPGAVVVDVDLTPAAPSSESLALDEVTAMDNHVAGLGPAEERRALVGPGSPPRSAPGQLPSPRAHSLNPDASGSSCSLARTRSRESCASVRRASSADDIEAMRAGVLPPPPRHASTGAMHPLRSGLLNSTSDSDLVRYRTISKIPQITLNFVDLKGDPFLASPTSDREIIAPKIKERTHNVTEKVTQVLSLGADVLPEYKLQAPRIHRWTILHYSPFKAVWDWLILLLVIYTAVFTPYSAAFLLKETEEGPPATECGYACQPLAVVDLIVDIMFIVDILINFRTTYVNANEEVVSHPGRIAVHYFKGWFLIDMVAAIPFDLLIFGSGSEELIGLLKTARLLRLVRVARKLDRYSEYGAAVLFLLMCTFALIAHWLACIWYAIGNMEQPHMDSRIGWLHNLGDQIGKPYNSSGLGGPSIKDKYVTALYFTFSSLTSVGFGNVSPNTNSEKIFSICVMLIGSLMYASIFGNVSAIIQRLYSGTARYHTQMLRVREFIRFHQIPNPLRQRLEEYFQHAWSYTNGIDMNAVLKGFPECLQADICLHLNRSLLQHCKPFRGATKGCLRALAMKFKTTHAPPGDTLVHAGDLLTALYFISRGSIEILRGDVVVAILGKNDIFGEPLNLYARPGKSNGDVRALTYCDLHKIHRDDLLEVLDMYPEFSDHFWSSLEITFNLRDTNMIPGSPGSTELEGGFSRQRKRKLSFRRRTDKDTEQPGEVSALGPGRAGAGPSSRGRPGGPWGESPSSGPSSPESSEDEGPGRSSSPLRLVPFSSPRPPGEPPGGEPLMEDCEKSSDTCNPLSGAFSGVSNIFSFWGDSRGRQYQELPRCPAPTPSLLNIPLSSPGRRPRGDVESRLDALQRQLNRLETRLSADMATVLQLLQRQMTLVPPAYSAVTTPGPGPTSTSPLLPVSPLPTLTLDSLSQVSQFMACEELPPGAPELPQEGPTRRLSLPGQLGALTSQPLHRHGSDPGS
Chain of UniProt P11712 (P11712 whole entry, looked up): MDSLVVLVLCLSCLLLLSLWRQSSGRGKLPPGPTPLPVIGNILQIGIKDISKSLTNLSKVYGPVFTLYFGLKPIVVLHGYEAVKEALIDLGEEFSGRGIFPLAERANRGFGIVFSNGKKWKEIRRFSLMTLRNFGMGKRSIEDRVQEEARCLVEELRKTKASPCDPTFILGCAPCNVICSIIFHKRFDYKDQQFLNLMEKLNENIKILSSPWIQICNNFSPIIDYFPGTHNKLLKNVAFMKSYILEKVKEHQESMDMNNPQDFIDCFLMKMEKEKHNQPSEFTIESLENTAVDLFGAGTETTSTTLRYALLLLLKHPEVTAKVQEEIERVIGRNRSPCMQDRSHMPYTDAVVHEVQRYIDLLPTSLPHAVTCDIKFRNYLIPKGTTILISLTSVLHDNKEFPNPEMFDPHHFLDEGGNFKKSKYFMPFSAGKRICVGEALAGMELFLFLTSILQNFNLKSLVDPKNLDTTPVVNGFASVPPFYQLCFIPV
Chain of UniProt P08684 (P08684 whole entry, looked up): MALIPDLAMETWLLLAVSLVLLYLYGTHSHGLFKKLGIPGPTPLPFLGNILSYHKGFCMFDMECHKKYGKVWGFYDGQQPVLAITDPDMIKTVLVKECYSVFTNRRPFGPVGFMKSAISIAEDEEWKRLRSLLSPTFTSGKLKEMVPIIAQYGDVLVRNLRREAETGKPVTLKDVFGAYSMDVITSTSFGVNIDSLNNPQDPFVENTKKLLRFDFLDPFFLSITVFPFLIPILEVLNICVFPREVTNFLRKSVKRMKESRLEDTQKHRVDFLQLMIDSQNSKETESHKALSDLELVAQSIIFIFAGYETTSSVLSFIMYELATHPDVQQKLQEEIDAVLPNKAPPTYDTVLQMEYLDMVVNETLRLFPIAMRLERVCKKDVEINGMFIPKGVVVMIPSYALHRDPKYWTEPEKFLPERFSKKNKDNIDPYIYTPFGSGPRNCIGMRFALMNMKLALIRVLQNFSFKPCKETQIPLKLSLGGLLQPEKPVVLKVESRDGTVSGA
Chain of UniProt Q9R1A7 (Q9R1A7 whole entry, looked up): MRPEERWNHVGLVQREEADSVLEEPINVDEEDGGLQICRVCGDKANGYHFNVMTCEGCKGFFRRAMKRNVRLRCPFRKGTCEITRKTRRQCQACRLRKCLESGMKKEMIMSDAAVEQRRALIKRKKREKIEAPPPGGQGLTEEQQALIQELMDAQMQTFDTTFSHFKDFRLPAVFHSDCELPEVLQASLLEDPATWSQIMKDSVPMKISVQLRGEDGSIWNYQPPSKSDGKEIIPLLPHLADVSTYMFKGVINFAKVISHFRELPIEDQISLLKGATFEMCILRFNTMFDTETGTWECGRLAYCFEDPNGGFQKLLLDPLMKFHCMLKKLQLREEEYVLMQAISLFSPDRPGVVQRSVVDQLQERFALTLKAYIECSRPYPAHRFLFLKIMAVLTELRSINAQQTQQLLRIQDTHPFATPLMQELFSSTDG

With `COc1cc2c(Nc3ccc(Br)cc3F)ncnc2cc1OCC1CCN(C)CC1` the Potency [1] was “inactive”, the Potency [2] was “inactive” and the max activation [3] was inactive: -20.7%. The Potency [4] was active: 14.1 µM and the Potency [5] was “inactive”.
For `CCN(CC)c1ccc(C=O)c(O)c1`, the Potency [1] was “inactive”, the Potency [6] was inconclusive: 68.6 µM [cytotoxic] and the Potency [7] was inconclusive: 89.4 µM [inhibitor, single point].
In the case of `N#C/C(=C1/SC[C@@H](c2ccc(Cl)cc2Cl)S1)n1ccnc1`, the Potency [1] is reported as inconclusive: 33.5 µM [cytotoxic], the Potency [6] is reported as inconclusive: 33.5 µM [cytotoxic, single point] and the Potency [8] is reported as active: 0.219 µM. For the same compound, the Potency [9] was active: 3.01 µM.
For `Cc1nc2ccc(Cl)cc2[nH]1`, the Potency [1] was inconclusive: 54.4 µM [cytotoxic, partial curve], the Potency [10] was inconclusive: 76.8 µM [cytotoxic, partial curve, poor fit] and the Potency [7] was active: 39.8 µM. For the same compound, the Potency [11] was inconclusive: 70.9 µM [inhibitor, partial curve].
For `Cc1oc2c(NC(=O)c3c(Cl)cccc3Cl)cccc2c1C(C)(C)O`, the Potency [1] was inconclusive: 4.33 µM [cytotoxic, full curve], the Potency [2] was “inactive” and the Potency [10] was inconclusive: 27.3 µM [cytotoxic, single point]. The Potency [12] was active: 1.09 µM, the Potency [8] was “inactive” and the Potency [7] was “inactive”. For the same compound, the Potency [11] was active: 28.3 µM.
For `O=C(c1ccccc1)c1ccc(O)c(O)c1O`, the Potency [1] was inconclusive: 70.8 µM [cytotoxic] and inconclusive: 77 µM [cytotoxic, single point], the Potency [10] was inconclusive: 27.3 µM [cytotoxic, single point] and the Potency [12] was inconclusive: 30.6 µM [activator, partial curve]. The Potency [8] was active: 63.8 µM and inconclusive: 39.9 µM [inhibitor, partial curve] and the Potency [13] was inconclusive: 80.4 µM [inhibitor, partial curve, poor fit] and inconclusive: 35.6 µM [inhibitor, partial curve, poor fit].
With `CC(C)C[C@H]1C(=O)N2CCC[C@H]2[C@]2(O)O[C@](NC(=O)[C@@H]3C=C4c5cccc6[nH]c(Br)c(c56)C[C@H]4N(C)C3)(C(C)C)C(=O)N12` the Potency [1] was inconclusive: 20.7 µM [cytotoxic, single point], the Potency [10] was active: 16.4 µM and the Potency [12] was inconclusive: 20.7 µM [activator]. For the same compound, the Potency [4] was inconclusive: 4.47 µM [activator, full curve, poor fit].
In the case of `N[C@@H](CCC(=O)Nc1ccc([N+](=O)[O-])cc1)C(=O)O`, the Potency [1] is reported as inconclusive: 27.3 µM [cytotoxic, partial curve], the Potency [10] is reported as active: 54.5 µM and the Potency [12] is reported as “inactive”. For the same compound, the Potency [5] was “inactive”.
With `c1ccc(C(O[C@H]2CCCN(CCc3ccc4c(c3)OCO4)C2)c2ccccc2)cc1` the Potency [1] was inconclusive: 29.8 µM [cytotoxic], the Potency [10] was inconclusive: 33.5 µM [cytotoxic, partial curve, poor fit] and the Potency [12] was inconclusive: 23.7 µM [activator]. The Potency [7] was inconclusive: 43.6 µM [inhibitor, single point], the Potency [5] was active: 15.5 µM and the Potency [9] was active: 0.535 µM.
For `CC(C)(O)CCC(C)(C)O`, the Potency [1] was “inactive”, the Potency [6] was “inactive” and the Potency [7] was “inactive”.
For `O=C(NCC1CCCCN1)c1cc(OCC(F)(F)F)ccc1OCC(F)(F)F` (stereo unspecified), the Potency [1] was inconclusive: 33.5 µM [cytotoxic, partial curve, poor fit], the Potency [6] was “inactive” and the Potency [13] was “inactive”. For the same compound, the Potency [9] was active: 15.2 µM and active: 9.52 µM.
In the case of `CN(C)c1ccc(CCO)cc1`, the Potency [1] is reported as inconclusive: 15.3 µM [cytotoxic, single point], the Potency [6] is reported as “inactive” and the Potency [8] is reported as inconclusive: 31.5 µM [inhibitor, partial curve]. For the same compound, the Potency [5] was active: 19.9 µM and the Potency [13] was active: 35.4 µM.
With `CSc1ccc(Oc2ccc(S(N)(=O)=O)cc2CN(C)C)cc1C` the Potency [1] was inconclusive: 27.3 µM [cytotoxic, partial curve], the Potency [6] was inconclusive: 68.6 µM [cytotoxic, single point] and the Potency [8] was inconclusive: 7.1 µM [inhibitor, full curve, poor fit]. The Potency [5] was inconclusive: 39.9 µM [inhibitor, partial curve, poor fit] and the Potency [9] was active: 6.92 µM.
In the case of `CCNC(=O)N1CCN(CCCC(c2ccc(F)cc2)c2ccc(F)cc2)CC1`, the Potency [1] is reported as active: 13.3 µM, the Potency [10] is reported as active: 29.8 µM and the Potency [9] is reported as active: 0.107 µM.
With `COc1cc(CCC(C)=O)ccc1O` the Potency [1] was inconclusive: 77 µM [cytotoxic, partial curve, poor fit], the Potency [10] was “inactive” and the Potency [7] was “inactive”. For the same compound, the Potency [13] was inconclusive: 39.9 µM [inhibitor, partial curve].
